Source: PubChem BioAssay (NCI)
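GI50 marks 50% less growth. TGI denotes the concentration required for complete inhibition of growth.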

Key:
Assay in all cases: DTP human tumour cell line panel, 384-well format
786-0 renal = test system: 786-0 renal
A498 renal = test system: A498 renal
A549 NSCLC = test system: A549 NSCLC
ACHN renal = test system: ACHN renal
BT-549 breast = test system: BT-549 breast
CAKI-1 renal = test system: CAKI-1 renal
CCRF-CEM leukemia = test system: CCRF-CEM leukemia
COLO 205 colon = test system: COLO 205 colon
DU-145 prostate = test system: DU-145 prostate
HCC-2998 colon = test system: HCC-2998 colon
HCT-116 colon = test system: HCT-116 colon
HCT-15 colon = test system: HCT-15 colon
HL-60(TB) leukemia = test system: HL-60(TB) leukemia
HOP-62 NSCLC = test system: HOP-62 NSCLC
HOP-92 NSCLC = test system: HOP-92 NSCLC
HT29 colon = test system: HT29 colon
IGROV1 ovarian = test system: IGROV1 ovarian
K-562 leukemia = test system: K-562 leukemia
KM12 colon = test system: KM12 colon
LOX IMVI melanoma = test system: LOX IMVI melanoma
M14 melanoma = test system: M14 melanoma
MALME-3M melanoma = test system: MALME-3M melanoma
MCF7 breast = test system: MCF7 breast
MDA-MB-231 breast = test system: MDA-MB-231 breast
MDA-MB-435 melanoma = test system: MDA-MB-435 melanoma
MDA-MB-468 breast = test system: MDA-MB-468 breast
MOLT-4 leukemia = test system: MOLT-4 leukemia
NCI-H226 lung = test system: NCI-H226 lung
NCI-H23 lung = test system: NCI-H23 lung
NCI-H322M lung = test system: NCI-H322M lung
NCI-H460 NSCLC = test system: NCI-H460 NSCLC
NCI-H522 lung = test system: NCI-H522 lung
NCI/ADR-RES ovarian = test system: NCI/ADR-RES ovarian
OVCAR-3 ovarian = test system: OVCAR-3 ovarian
OVCAR-4 ovarian = test system: OVCAR-4 ovarian
OVCAR-5 ovarian = test system: OVCAR-5 ovarian
OVCAR-8 ovarian = test system: OVCAR-8 ovarian
PC-3 prostate = test system: PC-3 prostate
RPMI-8226 leukemia = test system: RPMI-8226 leukemia
RXF 393 renal = test system: RXF 393 renal
SF-268 CNS = test system: SF-268 CNS
SF-295 CNS = test system: SF-295 CNS
SF-539 CNS = test system: SF-539 CNS
SK-MEL-2 melanoma = test system: SK-MEL-2 melanoma
SK-MEL-28 melanoma = test system: SK-MEL-28 melanoma
SK-MEL-5 melanoma = test system: SK-MEL-5 melanoma
SK-OV-3 ovarian = test system: SK-OV-3 ovarian
SN12C renal = test system: SN12C renal
SNB-19 CNS = test system: SNB-19 CNS
SR leukemia = test system: SR leukemia
SW-620 colon = test system: SW-620 colon
T-47D breast = test system: T-47D breast
TK-10 renal = test system: TK-10 renal
U251 glioblastoma = test system: U251 glioblastoma
UACC-257 melanoma = test system: UACC-257 melanoma
UACC-62 melanoma = test system: UACC-62 melanoma
UO-31 renal = test system: UO-31 renal

Work on `CN[C@@H]1C[C@H]2O[C@@](C)([C@@H]1OC)n1c3ccccc3c3c4c(c5c6ccccc6n2c5c31)C(=O)NC4` yielded a GI50 ([…]-0 renal) of less than 10 nM, a TGI (786-0 renal) of less than 10 nM and a GI50 (A498 renal) of less than 10 nM. It also gave a TGI (A498 renal) of less than 10 nM, a GI50 (A549 NSCLC) of less than 10 nM and a TGI (A549 NSCLC) of 114 nM. It also gave a GI50 (ACHN renal) of less than 10 nM, a TGI (ACHN renal) of 333 nM and a GI50 (BT-549 breast) of less than 10 nM. It also gave a TGI (BT-549 breast) of less than 10 nM, a GI50 (CAKI-1 renal) of less than 10 nM and a TGI (CAKI-1 renal) of less than 10 nM. For the same compound, the GI50 (CCRF-CEM leukemia) was less than 10 nM, the TGI (CCRF-CEM leukemia) was less than 10 nM and the GI50 (COLO 205 colon) was less than 10 nM. It also gave a TGI (COLO 205 colon) of less than 10 nM, a GI50 (DU-145 prostate) of less than 10 nM and a TGI (DU-145 prostate) of 46.8 nM. For the same compound, the GI50 (HCC-2998 colon) was less than 10 nM, the TGI (HCC-2998 colon) was 16 nM and the GI50 (HCT-116 colon) was less than 10 nM. For the same compound, the TGI (HCT-116 colon) was 18.6 nM, the GI50 (HCT-15 colon) was less than 10 nM and the TGI (HCT-15 colon) was 30.4 nM. For the same compound, the GI50 (HL-60(TB) leukemia) was less than 10 nM, the TGI (HL-60(TB) leukemia) was 11.4 nM and the GI50 (HOP-62 NSCLC) was less than 10 nM. The TGI (HOP-62 NSCLC) was less than 10 nM, the GI50 (HOP-92 NSCLC) was less than 10 nM and the TGI (HOP-92 NSCLC) was less than 10 nM. It also gave a GI50 (HT29 colon) of 10.2 nM, a TGI (HT29 colon) of 36.1 nM and a GI50 (IGROV1 ovarian) of less than 10 nM. It also gave a TGI (IGROV1 ovarian) of less than 10 nM, a GI50 (K-562 leukemia) of 11.3 nM and a TGI (K-562 leukemia) of 185 nM. The GI50 (KM12 colon) was less than 10 nM, the TGI (KM12 colon) was 18.9 nM and the GI50 (LOX IMVI melanoma) was less than 10 nM. It also gave a TGI (LOX IMVI melanoma) of less than 10 nM, a GI50 (M14 melanoma) of less than 10 nM and a TGI (M14 melanoma) of 117 nM. It also gave a GI50 (MALME-3M melanoma) of less than 10 nM, a TGI (MALME-3M melanoma) of less than 10 nM and a GI50 (MCF7 breast) of less than 10 nM. For the same compound, the TGI (MCF7 breast) was 123 nM, the GI50 (MDA-MB-231 breast) was less than 10 nM and the TGI (MDA-MB-231 breast) was less than 10 nM. It also gave a GI50 (MDA-MB-435 melanoma) of less than 10 nM, a TGI (MDA-MB-435 melanoma) of 166 nM and a GI50 (MDA-MB-468 breast) of less than 10 nM. It also gave a TGI (MDA-MB-468 breast) of less than 10 nM, a GI50 (MOLT-4 leukemia) of less than 10 nM and a TGI (MOLT-4 leukemia) of less than 10 nM. It also gave a GI50 (NCI-H226 lung) of less than 10 nM, a TGI (NCI-H226 lung) of 45.8 nM and a GI50 (NCI-H23 lung) of less than 10 nM. The TGI (NCI-H23 lung) was less than 10 nM, the GI50 (NCI-H322M lung) was less than 10 nM and the TGI (NCI-H322M lung) was 19.9 nM. The GI50 (NCI-H460 NSCLC) was less than 10 nM, the TGI (NCI-H460 NSCLC) was 104 nM and the GI50 (NCI-H522 lung) was less than 10 nM. The TGI (NCI-H522 lung) was less than 10 nM, the GI50 (NCI/ADR-RES ovarian) was less than 10 nM and the TGI (NCI/ADR-RES ovarian) was less than 10 nM. For the same compound, the GI50 (OVCAR-3 ovarian) was less than 10 nM, the TGI (OVCAR-3 ovarian) was 68.3 nM and the GI50 (OVCAR-4 ovarian) was less than 10 nM. The TGI (OVCAR-4 ovarian) was less than 10 nM, the GI50 (OVCAR-5 ovarian) was less than 10 nM and the TGI (OVCAR-5 ovarian) was less than 10 nM. For the same compound, the GI50 (OVCAR-8 ovarian) was less than 10 nM, the TGI (OVCAR-8 ovarian) was 16.5 nM and the GI50 (PC-3 prostate) was less than 10 nM. The TGI (PC-3 prostate) was 103 nM, the GI50 (RPMI-8226 leukemia) was less than 10 nM and the TGI (RPMI-8226 leukemia) was less than 10 nM. For the same compound, the GI50 (RXF 393 renal) was less than 10 nM, the TGI (RXF 393 renal) was less than 10 nM and the GI50 (SF-268 CNS) was less than 10 nM. It also gave a TGI (SF-268 CNS) of less than 10 nM, a GI50 (SF-295 CNS) of less than 10 nM and a TGI (SF-295 CNS) of less than 10 nM. It also gave a GI50 (SF-539 CNS) of less than 10 nM, a TGI (SF-539 CNS) of less than 10 nM and a GI50 (SK-MEL-2 melanoma) of less than 10 nM. It also gave a TGI (SK-MEL-2 melanoma) of less than 10 nM, a GI50 (SK-MEL-28 melanoma) of less than 10 nM and a TGI (SK-MEL-28 melanoma) of 52 nM. The GI50 (SK-MEL-5 melanoma) was less than 10 nM, the TGI (SK-MEL-5 melanoma) was 114 nM and the GI50 (SK-OV-3 ovarian) was less than 10 nM. The TGI (SK-OV-3 ovarian) was less than 10 nM, the GI50 (SN12C renal) was less than 10 nM and the TGI (SN12C renal) was 15.2 nM. The GI50 (SNB-19 CNS) was less than 10 nM, the TGI (SNB-19 CNS) was 26.3 nM and the GI50 (SR leukemia) was less than 10 nM. It also gave a TGI (SR leukemia) of less than 10 nM, a GI50 (SW-620 colon) of less than 10 nM and a TGI (SW-620 colon) of 15.5 nM. It also gave a GI50 (T-47D breast) of 15 nM, a TGI (T-47D breast) of 88.1 nM and a GI50 (TK-10 renal) of less than 10 nM. The TGI (TK-10 renal) was less than 10 nM, the GI50 (U251 glioblastoma) was less than 10 nM and the TGI (U251 glioblastoma) was 18.1 nM. The GI50 (UACC-257 melanoma) was less than 10 nM, the TGI (UACC-257 melanoma) was 177 nM and the GI50 (UACC-62 melanoma) was less than 10 nM. It also gave a TGI (UACC-62 melanoma) of 65.4 nM, a GI50 (UO-31 renal) of less than 10 nM and a TGI (UO-31 renal) of less than 10 nM.
